Results published in PubChem BioAssay (NCATS).
Several values for one entry are separate records, joined by “and”; a condition that tells them apart may be missing. Equal entries are not always repeated. The shares of active, inactive and inconclusive entries below differ from those in the screen. For some of these results: Potencies beside an inconclusive call are fits to weak or partial responses and may not hold up. Activity calls are given as the source filed them. The call rests on the fitted dose curve; in most records, active means well fitted curve in the direction sought with a large enough effect; inconclusive means small, poorly fitted or top-dose-only effect, or another doubt; inactive means no such curve, though single readings can be large; an effect the other way counts as inactive or inconclusive.

Legend:
[1] = target: Cytochrome P450 3A7 (Homo sapiens) (UniProt P24462); experiment: Cytochrome P450 family 3 subfamily A member 7 (CYP3A7) small molecule antagonists: luciferase biochemical qHTS assay (AID 1963596); further: nearly all actives have a fitted effect of over 40% in size; further: potency means the concentration at half of the fitted maximal effect
Chain of UniProt P24462 (P24462 whole entry, looked up): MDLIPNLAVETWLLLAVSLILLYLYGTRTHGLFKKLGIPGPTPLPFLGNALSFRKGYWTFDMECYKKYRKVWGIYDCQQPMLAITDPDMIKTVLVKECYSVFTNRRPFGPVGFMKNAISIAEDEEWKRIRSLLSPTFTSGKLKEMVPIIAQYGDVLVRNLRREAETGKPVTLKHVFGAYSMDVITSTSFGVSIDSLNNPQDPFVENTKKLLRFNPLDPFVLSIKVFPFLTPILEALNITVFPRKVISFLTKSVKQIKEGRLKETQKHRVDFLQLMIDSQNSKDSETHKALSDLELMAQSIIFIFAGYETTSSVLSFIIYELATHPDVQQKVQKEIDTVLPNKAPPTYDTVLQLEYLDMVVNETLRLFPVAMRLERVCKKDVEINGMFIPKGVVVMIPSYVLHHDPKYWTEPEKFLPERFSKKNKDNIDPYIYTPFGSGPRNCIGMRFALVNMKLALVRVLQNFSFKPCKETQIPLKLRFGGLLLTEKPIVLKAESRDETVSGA
In short: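 Enzyme-substrate mix + cpd (DMSO), 10 min RT; + NADPH regen system, 1 h RT; + luciferin detection reagent, 20 min RT; luminescence read. Proluciferin substrate, P450-Glo format, 1536-well qHTS.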

[2] = Viability qHTS for spleen associated tyrosine kinase inhibitor (SYKi) naive MV4-11 cells (AID 1963823); settings: MV4-11 AML viability, CellTiter-Glo luminescence, 72 h; viability (% of control): at 45 µM (top of the series); further: nearly all actives have a fitted effect of over 40% in size; further: potency means the concentration at half of the fitted maximal effect
In short: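 SYKi-naive MV4-11 AML cells, 500 per well, were exposed to library compounds for 72 hr at 37 C, 5% CO2. Viability was then read by CellTiter-Glo luminescence after 10 min at room temperature.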

[3] = Quantitative highthroughput screen to assess conditional lethalithy of NOMO1 cells grown in RPMI1640 with dialyzed fetal bovine serum (RPMI+ds) (AID 1963877);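 further: 100% = DMSO control wells and 0% = empty wells; nearly all actives have a fitted effect of over 30% in size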
In short: (§1)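 Each medium arm—HPLM with 10% dialyzed FBS, or RPMI1640 with 5 mM glucose and 10% untreated or dialyzed FBS—was screened against an 11-point, 3-fold compound titration for 48 h at 37 °C, with CellTiter-Glo luminescence as endpoint.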

[4] = Quantitative highthroughput screen to assess conditional lethalithy of NOMO1 cells grown in Human Plasma-Like Medium with dialyzed fetal bovine serum (HPLM+ds) (AID 1963878); settings: NOMO1 AML cells in HPLM+ds, CellTiter-Glo viability, 48 h; viability: at 45.8 µM (top of the series); further: nearly all actives have a fitted effect of over 35% in size; further: potency means the concentration at half of the fitted maximal effect;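 on Viability: 100% = DMSO wells and 0% = empty wells on each plate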
In short: as §1

[5] = Quantitative highthroughput screen to assess conditional lethalithy of P12 Ichikawa cells grown in Human Plasma-Like Medium with dialyzed fetal bovine serum (HPLM+ds) (AID 1963879); settings: Potency: viability; further: potency means the concentration at half of the fitted maximal effect; nearly all actives have a fitted effect of over 35% in size
In short: as §1

[6] = Quantitative highthroughput screen to assess conditional lethalithy of P12 Ichikawa cells grown in RPMI1640 with dialyzed fetal bovine serum (RPMI+ds) (AID 1963880); settings: Potency: P12-Ichikawa viability; further: nearly all actives have a fitted effect of over 35% in size; further: potency means the concentration at half of the fitted maximal effect;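 on Viability: 100% = DMSO wells and 0% = empty wells on each plate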
In short: as §1

[7] = Quantitative highthroughput screen to assess conditional lethalithy of SEM cells grown in Human Plasma-Like Medium with dialyzed fetal bovine serum (HPLM+ds) (AID 1963882); further: nearly all actives have a fitted effect of over 35% in size; further: potency means the concentration at half of the fitted maximal effect
In short: as §1

[8] = Quantitative highthroughput screen to assess conditional lethalithy of SEM cells grown in RPMI1640 with dialyzed fetal bovine serum (RPMI+ds) (AID 1963884); settings: SEM B-ALL cells, RPMI+dialyzed FBS, CellTiter-Glo viability, 48 h; viability: at 45.8 µM (top of the series); further: nearly all actives have a fitted effect of over 35% in size; further: potency means the concentration at half of the fitted maximal effect;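 on Viability: 100% = DMSO control wells and 0% = empty wells without cells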
In short: as §1

[9] = Quantitative highthroughput screen to assess conditional lethalithy of SEM cells grown in RPMI1640 with unreated serum (RPMI+s) (AID 1963883); settings: SEM B-ALL cells, CellTiter-Glo viability, 48 h; viability: at 45.8 µM (top of the series)
In short: as §1

[10] = Viability qHTS for spleen associated tyrosine kinase inhibitor (SYKi) drug resistant MV4-11 cells (AID 1963824); further: nearly all actives have a fitted effect of over 35% in size; further: potency means the concentration at half of the fitted maximal effect
In short: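 SYK inhibitor-resistant MV4-11 AML cells, 500 per well, added to predispensed compounds and incubated 72 hr at 37 C, 5% CO2. Viability measured by CellTiter-Glo luminescence after 10 min at room temperature.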

[11] = Cellular viability qHTS for adrenocortical cancer (ACC) cell line NCI-H295R (AID 1963990); settings: CellTiter-Glo ATP luminescence, 48 h; activity change, negative = viability loss: at 46.1 µM (top of the series); further: nearly all actives have a fitted effect of over 60% in size; further: potency means the concentration at half of the fitted maximal effect;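 on activity change, negative = viability loss: 0% = DMSO only wells and -100% = full killing with cytotoxic reference compound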
In short: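 CellTiter-Glo ATP luminescence, read 48 h after compound addition, measured viability of NCI-H295R adrenocortical cells grown serum-free with ITS. Final concentrations spanned up to 46 uM. Data normalized to DMSO and doxorubicin, fitted for IC50 and maximal response.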

[12] = Quantitative highthroughput screen to assess conditional lethalithy of NOMO1 cells grown in RPMI1640 with untreated serum (RPMI+s) (AID 1963876); settings: NOMO1 AML cells in RPMI+serum, CellTiter-Glo viability, 48 h; viability: at 45.8 µM (top of the series); further: nearly all actives have a fitted effect of over 35% in size; further: potency means the concentration at half of the fitted maximal effect;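 on Viability: 100% = DMSO wells and 0% = empty wells without cells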
In short: as §1

[13] = Cellular viability qHTS for adrenocortical cancer (ACC) cell line SW-13 (AID 1963989); settings: SW-13 ACC cells viability, CellTiter-Glo, 48 h; activity (max response): stronger effect = lower value; further: nearly all actives have a fitted effect of over 65% in size; further: potency means the concentration at half of the fitted maximal effect;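 on activity (max response): cells grown in serum-free medium with ITS supplement; on the % scale 0 is the no-effect control and ±100 the full control effect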
In short: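 Viability was read as CellTiter-Glo luminescence after 48 h compound treatment (up to 46 uM final) of SW-13 cells grown serum-free; titration curves were fit with a four-parameter logistic model to give IC50 and efficacy.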

[14] = Quantitative highthroughput screen to assess conditional lethalithy of P12 Ichikawa cells grown in RPMI1640 with untreated serum (RPMI+s) (AID 1963881); settings: Potency: viability
In short: as §1
Tags describe the fitted curve by direction and shape.

## OCCn1cc(-c2cnc3nnn(Cc4ccc5ncccc5c4)c3n2)cn1
[1]
  Potency: inconclusive: 6.01 µM [inhibitor, full curve]
[2]
  Potency: inconclusive: 29.5 µM [cytotoxic, partial curve, poor fit]
[3]
  Potency: inactive
[4]
  Potency: inconclusive: 23.5 µM [cytotoxic, single point]
[5]
  Potency: inconclusive: 26.4 µM [cytotoxic, partial curve, poor fit]
[6]
  Potency: inactive
[7]
  Potency: inconclusive: 20.9 µM [cytotoxic, partial curve]
[8]
  Potency: inconclusive: 16.6 µM [cytotoxic, partial curve]

## O=c1cc(O)c(Cl)c[nH]1
[1]
  Potency: inconclusive: 17.4 µM [inhibitor, partial curve, poor fit]
[2]
  Potency: inactive
[4]
  Potency: active: 5.26 µM
[5]
  Potency: active: 7.43 µM
[6]
  Potency: active: 14.8 µM
[7]
  Potency: inconclusive: 26.4 µM [cytotoxic, single point]
[9]
  Potency: inconclusive: 16.6 µM [cytotoxic, partial curve]
[8]
  Potency: inconclusive: 26.4 µM [cytotoxic, single point]

## Nc1ccc(S(=O)(=O)Nc2ccc(Cl)nn2)cc1
[1]
  Potency: inconclusive: 38.9 µM [inhibitor, single point]
[2]
  Potency: inconclusive: 26.6 µM [cytotoxic, single point]
[10]
  Potency: inconclusive: 29.9 µM [cytotoxic, single point]
[11]
  Potency: inconclusive: 3.26 µM [cytotoxic, partial curve, poor fit]

## OC[C@H](Cc1ccccc1)Nc1nc(Oc2ccc3c(c2)CCC3)nc2c1ncn2Cc1ccc(-c2ccccc2)cc1
[1]
  Potency: inconclusive: 2.68 µM [inhibitor, partial curve]
[2]
  Potency: active: 13.2 µM
[12]
  Potency: inactive
[4]
  Potency: inactive
[5]
  Potency: inconclusive: 9.35 µM [cytotoxic, partial curve, poor fit]
[6]
  Potency: inconclusive: 10.5 µM [cytotoxic, full curve, poor fit]
[7]
  Potency: inconclusive: 14.8 µM [cytotoxic, partial curve, poor fit]
[11]
  Potency: inconclusive: 5.01 µM [cytotoxic, full curve]

## CC(N=C(NC#N)Nc1ccncc1)C(C)(C)C (configuration not stated)
[1]
  Potency: inactive
[2]
  Potency: inactive
[10]
  Potency: inactive
[11]
  Potency: inactive

## Cc1[nH]c(/C=C2\C(=O)Nc3ccc(F)cc32)c(C)c1C(=O)NCCN1CCCC1
[1]
  Potency: inconclusive: 26.8 µM [inhibitor, single point]
[2]
  Potency: active: 51.7 nM and active: 14.4 nM
[10]
  Potency: active: 73.1 nM and active: 32.3 nM
[13]
  Potency: inconclusive: 16 µM [cytotoxic, single point]
[11]
  Potency: active: 10.1 µM

## C[C@@H]1C[C@H]2[C@@H]3CCC4=CC(=O)C=C[C@]4(C)[C@@]3(F)[C@@H](O)C[C@]2(C)[C@@]1(O)C(=O)COC(=O)c1ccncc1
[1]
  Potency: active: 8.71 µM
[2]
  Potency: inconclusive: 8.41 µM [cytotoxic, partial curve, poor fit]
[10]
  Potency: inconclusive: 15 µM [cytotoxic, partial curve, poor fit]
[11]
  Potency: inconclusive: 0.0259 µM [rising, full curve]

## O=C(NC1CCN(CCc2c[nH]c3ccccc23)CC1)c1ccccc1
[1]
  Potency: inconclusive: 24.5 µM [inhibitor, single point]
[2]
  Potency: inconclusive: 21.1 µM [cytotoxic, partial curve]
[10]
  Potency: inconclusive: 15 µM [cytotoxic, partial curve]
[11]
  Potency: inconclusive: 18.4 µM [cytotoxic, partial curve, poor fit]

## CC[C@]1(O)C[C@H]2CN(CCc3c([nH]c4ccccc34)[C@@](C(=O)OC)(c3cc4c(cc3OC)N(C=O)[C@H]3[C@@](O)(C(=O)OC)[C@H](OC(C)=O)[C@]5(CC)C=CCN6CC[C@]43[C@@H]65)C2)C1
[1]
  Potency: inconclusive: 38.9 µM [inhibitor, single point]
[2]
  Potency: inconclusive: 0.0944 µM [cytotoxic, full curve]
[12]
  Potency: inconclusive: 0.0372 µM [cytotoxic, full curve]
[4]
  Potency: inconclusive: 0.0264 µM [cytotoxic, full curve]
[6]
  Potency: active: 0.0418 µM
[7]
  Potency: active: 0.0332 µM
[8]
  Potency: active: 0.0469 µM

## Nc1c2c(nc3c1CCC3)CCCC2
[1]
  Potency: inconclusive: 38.9 µM [inhibitor, single point]
[2]
  Potency: inactive
[10]
  Potency: inactive
[11]
  Potency: inactive

## NC(=O)COCCN1CCN(C(c2ccccc2)c2ccc(Cl)cc2)CC1 (configuration not stated)
[1]
  Potency: inactive
[2]
  Potency: inactive
[10]
  Potency: inactive
[11]
  Potency: inactive

## O=C(C1CC1)N1CC[C@@H](Cc2n[nH]c(=O)n2-c2ccc(-c3ccc4occc4c3)cc2)C1
[1]
  Potency: active: 0.536 µM
[2]
  Potency: inactive and inconclusive: 18.6 µM [cytotoxic, partial curve]
[12]
  Potency: inactive
[7]
  Potency: inconclusive: 8.31 µM [cytotoxic, full curve]
[9]
  Potency: inconclusive: 11.7 µM [cytotoxic, full curve, poor fit]
[8]
  Potency: inconclusive: 13.2 µM [cytotoxic, partial curve]
[11]
  Potency: inconclusive: 22.4 µM [cytotoxic, partial curve, poor fit]

## NNC(=O)c1ccncc1
[1]
  Potency: inconclusive: 21.9 µM [inhibitor, single point]
[2]
  Potency: inactive
[6]
  Potency: inconclusive: 20.9 µM [cytotoxic, single point]
[14]
  Potency: inconclusive: 18.7 µM [cytotoxic, partial curve, poor fit]
[8]
  Potency: inconclusive: 0.166 µM [cytotoxic, full curve, poor fit]

## O=C1O[C@H]([C@@H](O)CO)C(O)=C1O
[1]
  Potency: inactive
[10]
  Potency: inactive

## Cc1ccc(C)c(OCCCC(C)(C)C(=O)O)c1
[1]
  Potency: inconclusive: 27.5 µM [inhibitor, single point]
[2]
  Potency: inconclusive: 18.8 µM [cytotoxic, partial curve, poor fit] and inconclusive: 11.8 µM [cytotoxic, partial curve]
[4]
  Potency: inactive
[7]
  Potency: inactive
[8]
  Potency: inactive

## CCN[C@H]1CN(CCCOC)S(=O)(=O)c2sc(S(N)(=O)=O)cc21
[1]
  Potency: inconclusive: 19.5 µM [inhibitor, single point]
[10]
  Potency: inactive

## CC(C)CC(=O)Nc1n[nH]c2c1CN(C(=O)C1CCN(C)CC1)C2(C)C
[1]
  Potency: inactive
[2]
  Potency: active: 206 nM and active: 417 nM
[4]
  Potency: active: 6.62 µM
[5]
  Potency: inconclusive: 0.132 µM [cytotoxic, full curve]
[9]
  Potency: active: 1.05 µM
[11]
  Potency: inconclusive: 28.2 µM [cytotoxic, single point]

## NS(=O)(=O)c1ccc(N2CCN(CC[C@@H]3OCCc4ccccc43)CC2)cc1
[1]
  Potency: inconclusive: 21.3 µM [inhibitor, partial curve]
[10]
  Potency: inconclusive: 18.4 µM [cytotoxic, single point]

## O=C(Nc1nc2ccc([N+](=O)[O-])cc2s1)C1CCCCC1
[1]
  Potency: inconclusive: 13.5 µM [inhibitor, partial curve]
[10]
  Potency: active: 18.4 µM

## CCn1c(=O)c(-c2ccc(-c3cncs3)cc2Cl)cc2cnc(Nc3ccc(N4CCN(C)CC4)cc3)nc21
[1]
  Potency: active: 3.01 µM
[2]
  Potency: active: 0.291 µM
[13]
  Potency: inconclusive: 11.2 µM [cytotoxic, partial curve]
[11]
  Potency: inactive

## O=c1c(O)c(-c2ccc(O)cc2O)oc2cc(O)cc(O)c12
[1]
  Potency: inactive
[2]
  Potency: inconclusive: 16.6 µM [cytotoxic, partial curve, poor fit]
[4]
  Potency: inconclusive: 23.5 µM [cytotoxic, single point]
[6]
  Potency: inconclusive: 14.8 µM [cytotoxic, partial curve]
[14]
  Potency: inconclusive: 26.4 µM [cytotoxic, partial curve]
[7]
  Potency: inconclusive: 26.4 µM [cytotoxic, single point]
[9]
  Potency: inconclusive: 37.2 µM [cytotoxic, single point]
[8]
  Potency: inconclusive: 37.2 µM [cytotoxic, single point]

## CCOCCn1c(N2CCCN(C)CC2)nc2ccccc21
[1]
  Potency: inconclusive: 38.9 µM [inhibitor, partial curve, poor fit]
[2]
  Potency: inactive
[11]
  Potency: inactive

## CC(C)(C)C1CCN(C(=O)n2ncc(C(O)(c3ccccc3)c3ccccc3)n2)CC1
[1]
  Potency: inactive
[10]
  Potency: active: 8.2 µM

## COc1ccc2c(Oc3ccc(NC(=O)c4c(C)n(CC(C)(C)O)n(-c5ccccc5)c4=O)cc3F)ccnc2c1
[1]
  Potency: inconclusive: 10.7 µM [inhibitor, partial curve, poor fit]
[2]
  Potency: active: 0.0934 µM
[4]
  Potency: inactive
[7]
  Potency: inconclusive: 3.32 µM [cytotoxic, full curve]
[8]
  Potency: inconclusive: 1.48 µM [cytotoxic, full curve]
[11]
  Potency: inconclusive: 11.2 µM [cytotoxic, single point]

## CCOC(=O)c1cccc(N)c1
[1]
  Potency: active: 27.5 µM
[2]
  Potency: inconclusive: 29.9 µM [cytotoxic, partial curve, poor fit]
[13]
  activity (max response): inactive: -1.69%

## COc1cc(C(=S)N2CCOCC2)cc(OC)c1OC
[1]
  Potency: inconclusive: 27.5 µM [inhibitor, single point]
[2]
  Potency: inactive
[13]
  activity (max response): inactive: 1.86%
[11]
  Potency: inactive

## CC(=O)Oc1cc(C(C)C)c(OCCN(C)C)cc1C
[1]
  Potency: inconclusive: 38.9 µM [inhibitor, single point]
[2]
  Potency: active: 0.0011 µM
[13]
  activity (max response): inactive: 12.6%

## COCCOc1ccc(N2CCN(CCn3ncc4c3nc(N)n3nc(-c5ccco5)nc43)CC2)cc1
[1]
  Potency: inconclusive: 1.69 µM [inhibitor, full curve, poor fit]
[2]
  Potency: inconclusive: 2.63 µM [cytotoxic, partial curve, poor fit]
[13]
  activity (max response): inactive: -19.9%
